# Test results as given in publication doi:10.1101/2020.05.04.077941 (bioRxiv, 2020).
# T1: His-FLAG-NEPH1-FL (full length) (Mus musculus, UniProt Q80W68 48-789)
# T1 sequence: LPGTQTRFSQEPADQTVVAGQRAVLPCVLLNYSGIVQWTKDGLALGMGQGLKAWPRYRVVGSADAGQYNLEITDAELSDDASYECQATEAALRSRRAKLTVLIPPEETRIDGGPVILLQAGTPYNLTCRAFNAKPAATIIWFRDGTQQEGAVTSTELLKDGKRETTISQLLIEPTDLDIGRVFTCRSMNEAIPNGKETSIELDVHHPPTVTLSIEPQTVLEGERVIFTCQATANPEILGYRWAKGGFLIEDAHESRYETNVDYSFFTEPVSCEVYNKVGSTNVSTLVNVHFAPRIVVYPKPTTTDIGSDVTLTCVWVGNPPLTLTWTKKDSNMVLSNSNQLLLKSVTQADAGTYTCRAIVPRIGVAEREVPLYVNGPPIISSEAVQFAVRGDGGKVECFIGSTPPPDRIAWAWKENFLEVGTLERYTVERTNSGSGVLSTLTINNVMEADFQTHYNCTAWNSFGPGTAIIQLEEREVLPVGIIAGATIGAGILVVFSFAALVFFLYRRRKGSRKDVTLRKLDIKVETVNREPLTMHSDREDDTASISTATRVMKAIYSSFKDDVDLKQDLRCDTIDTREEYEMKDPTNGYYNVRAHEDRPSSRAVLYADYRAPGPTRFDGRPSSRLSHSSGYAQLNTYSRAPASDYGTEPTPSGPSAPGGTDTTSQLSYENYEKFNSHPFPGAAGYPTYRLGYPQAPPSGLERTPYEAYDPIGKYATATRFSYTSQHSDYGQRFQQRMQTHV
# T2: His-FLAG-NEPHRIN-ECD (entire extracellular domain) (Mus musculus, UniProt Q9QZS7 37-1078)
# T2 sequence: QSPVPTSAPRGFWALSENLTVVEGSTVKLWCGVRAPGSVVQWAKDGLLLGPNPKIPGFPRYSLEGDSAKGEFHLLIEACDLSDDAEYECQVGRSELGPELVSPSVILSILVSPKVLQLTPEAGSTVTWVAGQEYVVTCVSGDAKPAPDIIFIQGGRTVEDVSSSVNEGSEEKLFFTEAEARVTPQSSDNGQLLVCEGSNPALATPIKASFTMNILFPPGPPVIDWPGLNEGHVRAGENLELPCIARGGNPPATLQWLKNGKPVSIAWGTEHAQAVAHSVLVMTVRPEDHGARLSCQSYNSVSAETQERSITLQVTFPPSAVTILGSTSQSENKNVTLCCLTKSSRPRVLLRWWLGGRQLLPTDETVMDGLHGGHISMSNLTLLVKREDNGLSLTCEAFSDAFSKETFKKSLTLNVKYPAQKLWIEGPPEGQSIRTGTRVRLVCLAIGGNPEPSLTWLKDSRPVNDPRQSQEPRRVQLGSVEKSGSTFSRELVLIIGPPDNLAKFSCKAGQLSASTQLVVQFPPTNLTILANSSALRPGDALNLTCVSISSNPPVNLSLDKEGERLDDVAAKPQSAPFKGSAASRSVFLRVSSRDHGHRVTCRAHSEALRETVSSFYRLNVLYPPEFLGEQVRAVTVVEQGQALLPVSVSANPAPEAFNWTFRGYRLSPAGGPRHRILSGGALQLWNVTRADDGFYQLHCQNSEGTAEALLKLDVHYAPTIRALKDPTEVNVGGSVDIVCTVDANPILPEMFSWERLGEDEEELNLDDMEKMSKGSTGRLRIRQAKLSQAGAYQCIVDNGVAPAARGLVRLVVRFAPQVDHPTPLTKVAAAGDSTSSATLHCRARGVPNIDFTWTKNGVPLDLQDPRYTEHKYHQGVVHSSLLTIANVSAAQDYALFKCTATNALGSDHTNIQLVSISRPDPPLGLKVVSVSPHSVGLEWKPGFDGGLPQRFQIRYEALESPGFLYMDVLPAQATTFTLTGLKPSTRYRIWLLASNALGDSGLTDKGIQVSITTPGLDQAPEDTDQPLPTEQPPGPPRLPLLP
# B1: purified human recombinant HGF (ligand)
# chain: not shown
# Tests used:
# [1] = biological target: T1, His-FLAG-NEPH1-FL (full length); experiment: SPR
# [2] = biological target: T2, His-FLAG-NEPHRIN-ECD (entire …); experiment: SPR
binder,measurement,setting,value
B1,Kd,[1],25.7 nM
same,Kd,[2],0.4 nM
